T1: UNK ZnF1-3 (human, UniProt Q9C0B0 31-174)
T1 sequence: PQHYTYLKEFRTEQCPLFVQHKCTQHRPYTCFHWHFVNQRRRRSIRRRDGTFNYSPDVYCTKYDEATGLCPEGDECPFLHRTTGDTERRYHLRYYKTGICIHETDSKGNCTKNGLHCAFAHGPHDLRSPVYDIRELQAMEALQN

B1: chr5:128440902:128440903:+_ENSG00000066583_ENST00000173527|hu_mus|hu_hu_hu_mus_True|48_68 (ssRNA)
RNA: GGGAGUUCUACAGUCCGACGAUCUUGAACGGUGCUGCCAAGUCCUUUGGGGUAUUGUUCCGUUAUGAUAACAGGAAUCCCUAAGAUCCGGGCCCCUUGCAACAGUCUCUGUCCCACACUAAUGAUGUCCCCAAAGUAUUUGAUCAACAGAGGAUUGAGCAUCA
B2: chr7:151048522:151048523:+_ENSG00000013374_ENST00000566856|hu_mus|hu_hu_hu_mus_True|78_108 (ssRNA)
RNA: GGGAGUUCUACAGUCCGACGAUCCUGCUUCUUAUUUAUUACGAUCUUGAUGUAAUUUUCUUGAAGUCCGAAAGUUUCAGCUAUUUGACACCUCAGGUCUCUACCAGUGACAUGCAAGCGGGUCUCCAACAAGCUUUUCUUAUCCAACAGAGGAUUGAGCAUCA
B3: chr13:100191535:100191536:-_ENSMUSG00000052727_ENSMUST00000064762|mus_hu|motif|central (ssRNA)
RNA: GGGAGUUCUACAGUCCGACGAUCAGAGGGGAUAUUGCACACAAAUAUCAUAAAAGCACUACAUAUUACUUUCACUGGAAACGGAUUUUCUACAUUAGAUAUGACUGGAUAGGAUAGAAGUGAUGCAGGAUUAUAAGACAUAAUCAACAGAGGAUUGAGCAUCA
B4: chr4:115894766:115894767:+_ENSMUSG00000028698_ENSMUST00000030464|mus_hu|mus_mus_mus_hu_True|28_28 (ssRNA)
RNA: GGGAGUUCUACAGUCCGACGAUCUUCCACACGGAAAUGUACUUCGGGUUUUCCAACGGCCAGUACCAGUCCGGCCAAACUACCCGAACAGGGUCCUCCCCCUCUCUUCUCUCCUCCACAACAAAAUGCCCCCGAACUUUCAAGCAACAGAGGAUUGAGCAUCA
B5: 43511743_43514969_1551_CDS_ENSMUSG00000038546_ENSMUST00000144326|mouse|control|control (ssRNA)
RNA: GGGAGUUCUACAGUCCGACGAUCCUCCGGUACAGUCAAGCUGGAUAGCUGGUGUUUACUAUGGCAAUAUGAUUGGUGUGCUUUAUUUGAUAUUACACCAUUGCUACAACUUUCAAAACCAGAAAAAUGUGCAGUGCUGCUUUUCAACAGAGGAUUGAGCAUCA
B6: chr14:76904430:76904431:+_ENSMUSG00000022010_ENSMUST00000022587|mus_mus|FALSE|FALSE (ssRNA)
RNA: GGGAGUUCUACAGUCCGACGAUCCCGUGGAAAAAAAAGAGAGAGGGCGGGAGGGAGCAAGCUCCAGCAGCCUGGUUCAAACUAGAUAAAACCGCCUAGCUGUCUGCAGCUCAGGGCGUGAGAACGGUGGUGCUGGCUCGAGUGCAACAGAGGAUUGAGCAUCA
B7: chr4:144460044:144460045:+_ENSG00000153147_ENST00000283131|hu_mus|hu_hu_hu_mus_False|28_58 (ssRNA)
RNA: GGGAGUUCUACAGUCCGACGAUCACGGUCCAUAGCCUGAAGAUCAACUUGCGGAUUCCAAUCUGAGUCAUAUAAAAUUACUACAUCAGCAGUUGCAAGAUUGAUGCCAAGACCACCAGCACGUGUGCUUAGCAUAAAUACAAACAACAGAGGAUUGAGCAUCA
B8: 71486823_71487036_1032_3pUTR_ENSMUSG00000031328_ENSMUST00000144429|mouse|control|control (ssRNA)
RNA: GGGAGUUCUACAGUCCGACGAUCGACUUGUCCACAUACACCUCAAAGGGGCUCUUGGCAAUAUGUUGGCCAGCAAAGAGCACAGUCACCUUAUGAGUCCCUGUCACUUCAGGGACAUACCAGACAGAGAAAGUACGGUUCUUGCAACAGAGGAUUGAGCAUCA
B9: chr14:63888807:63888808:-_ENSG00000154001_ENST00000337537|hu_hu|FALSE|FALSE (ssRNA)
RNA: GGGAGUUCUACAGUCCGACGAUCUUCAUUGCUGUCACUAGGAGGGAGAGUUCUGAAUAUAUUGCAAGAUACCAUUCUAACUACUUCAGGGUAAGUCUGCUCUGUCAAACAGCCUCUGCUUAUUGUAAUGUAGUCCACCAGUUCCAACAGAGGAUUGAGCAUCA
B10: chr7:141438946:141438947:+_ENSG00000106028_ENST00000265304|hu_mus|hu_hu_hu_mus_True|8_18 (ssRNA)
RNA: GGGAGUUCUACAGUCCGACGAUCGACGAAAUACCUGUAACACAGGUCUUCGAAACAUGGCUUCUGUUUUUCUUACAACCUAAUCUUUAGGCUUUUCCUAAAGGAAAGAAAGAAAAGGCCCAGCCACGCAGGGGAUCAACUACACAACAGAGGAUUGAGCAUCA
B11: 71823346_71842746_418_3pUTR_ENSG00000166747_ENST00000299980|human|control|control (ssRNA)
RNA: GGGAGUUCUACAGUCCGACGAUCCCGGAUCAGCUCCCGCAAUCUGAUGGGGGCUGGCAUCCUCGGCCCGAAACCUCGAAUGAAACCAGCAGCUCCGGGGGCGGCGGCAGCAGUGGCAGCAGGAACCGAACAUCCAAAAUGGCGCAACAGAGGAUUGAGCAUCA
B12: 104053121_104054612_280_3pUTR_ENSG00000155097_ENST00000518738|human|control|control (ssRNA)
RNA: GGGAGUUCUACAGUCCGACGAUCAGCCAGUUCAUCUGACAAGCCAACCAAGACAUCCAACGUGCCAACCUUUAAGUCAGGAAUAUUGAACUUGGAAGUGACAGCAAGAUUAUUGUUCUUUGAAGUUGCCGCAUGCAAUUUCUCCAACAGAGGAUUGAGCAUCA
B13: chr1:201104638:201104639:-_ENSG00000116857_ENST00000367334|hu_mus|motif|central (ssRNA)
RNA: GGGAGUUCUACAGUCCGACGAUCCAGAGACCUACAGAGACCCAAUCACACUCCCUCGUUAUAACAGUCGAGUACAUUUCGGGAGAGGGAGAAGGAUAAACGCCAUGGGCAUUUGAAGGGAAGACCCAGGGAAGACUGCAGUGACAACAGAGGAUUGAGCAUCA
B14: chr5:138721144:138721145:-_ENSMUSG00000029510_ENSMUST00000161827|mus_mus|FALSE|FALSE (ssRNA)
RNA: GGGAGUUCUACAGUCCGACGAUCUAGAACCCCGUUCUCGGCCGCGGGACGUCUCGAAGAAAAGAAUAGGAGCGUGUCCCCUAAAACUGAACAACCCCAGCACCGUAGCAGGACCAGGAGGCAUCUGCGGAGACAAUGGGAGCCCAACAGAGGAUUGAGCAUCA

The other results are listed elsewhere or left out.

Data on 14 molecules can be found in paper PMC12136788.

The assay has as its target T1, UNK ZnF1-3. Put plainly: nsRBNS (natural sequence RNA bind-n-seq); RBNS binding buffer (assumed for nsRBNS): 25 mM Tris pH 7.5, 150 mM KCl, 3 mM MgCl2, 0.01% Triton X-100, 500 ug/ml BSA, 20 U/ml SUPERase-In, 4 C; UNK is unkempt and MSI1 is Musashi-1; names of the RNAs are library labels; protein concentration not given here; high values mean tight binding.
The molecule B1 displayed a binding signal of 0.832 enrichment R.

Regarding B2, the binding signal was determined as 0.768 enrichment R.

B3 returned a binding signal of 1.42 enrichment R.

As to B4, the binding signal was 1.12 enrichment R.

B5 yielded a binding signal of 0.763 enrichment R.

As to B6, the binding signal was 1.68 enrichment R.

B7 yielded a binding signal of 1.12 enrichment R.

The molecule B8 gave a binding signal of 0.906 enrichment R.

Molecule B9 registered a binding signal of 0.849 enrichment R.

Consider B10, for which the binding signal amounted to 0.377 enrichment R.

For the molecule B11, the binding signal amounted to 1.03 enrichment R.

For B12, the binding signal is 1.04 enrichment R.

In the case of B13, the binding signal was found to be 1.55 enrichment R.

B14 showed a binding signal of 1.6 enrichment R.
